# Screen size: about 270,000 compounds; about 5,800 (2.1%) were called active. Inconclusive means that the source gave no clear call. Such entries were picked first, then a sample of the others. Calls follow the shape of the dose curve; as a rule, active = well fitted inhibition curve with a large enough effect; inconclusive = small, poorly fitted or top-dose-only effect; inactive = flat fitted curve, though single readings scatter. Potencies of inconclusive entries are doubtful fits and often do not repeat.
# Biological target: Microtubule-associated protein tau (Homo sapiens) (UniProt P10636)
# Test: qHTS for Inhibitors of Tau Fibril Formation, Thioflavin T Binding; also: nearly all actives have a fitted effect of over 55% in size
# Conditions: recombinant tau K18 P301L (four-repeat tau fragment), heparin-induced fibrillization, ThT fluorescence; series mostly up to 57.4 µM; activity, negative = inhibition: at the top concentration
# How it was run: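 K18 P301L tau (15 uM + 0.24 uM Alexa 594-tagged), heparin 20 uM, NaOAc pH 7, 6 h 37 C; ThT 30 uM, 1 h RT, ex 450/em 510 nm.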
# % is scaled to controls: 0 for no effect and ±100 for the full control effect; potency is read from the fitted curve at half-maximal effect; tags tell the direction and shape of the fitted curve.
# UniProt P10636, sequence (P10636 whole entry, looked up): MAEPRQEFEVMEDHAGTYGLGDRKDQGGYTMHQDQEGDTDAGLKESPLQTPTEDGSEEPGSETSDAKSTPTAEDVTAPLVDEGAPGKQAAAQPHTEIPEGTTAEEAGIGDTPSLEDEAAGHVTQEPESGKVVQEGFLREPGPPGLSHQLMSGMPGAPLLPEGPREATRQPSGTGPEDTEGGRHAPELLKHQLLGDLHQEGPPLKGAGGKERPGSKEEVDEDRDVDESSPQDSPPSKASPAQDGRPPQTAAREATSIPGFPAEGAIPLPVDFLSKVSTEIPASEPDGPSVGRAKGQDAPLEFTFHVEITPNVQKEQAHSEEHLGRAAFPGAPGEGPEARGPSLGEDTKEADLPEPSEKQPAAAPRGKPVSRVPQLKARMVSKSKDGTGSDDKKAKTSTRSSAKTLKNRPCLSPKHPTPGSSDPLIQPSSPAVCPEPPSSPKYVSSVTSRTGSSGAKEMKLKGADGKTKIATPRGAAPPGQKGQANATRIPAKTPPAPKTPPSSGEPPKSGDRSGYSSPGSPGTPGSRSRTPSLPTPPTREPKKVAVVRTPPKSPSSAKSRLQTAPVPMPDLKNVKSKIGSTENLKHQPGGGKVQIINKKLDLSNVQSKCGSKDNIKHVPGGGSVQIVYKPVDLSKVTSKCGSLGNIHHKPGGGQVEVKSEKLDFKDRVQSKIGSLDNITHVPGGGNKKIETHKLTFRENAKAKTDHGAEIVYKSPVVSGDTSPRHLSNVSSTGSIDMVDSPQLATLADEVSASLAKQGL
Structure (SMILES),Potency,"activity, negative = inhibition"
CC1(C)CC(=O)c2cnc(N3CCc4ccccc43)nc2C1,"inconclusive: 14.1 µM [inhibitor, partial curve]",–
COc1ccc(NC(=O)CN(C)S(=O)(=O)c2ccc(C(=O)N3CCOCC3)s2)cc1,–,inactive: 1.42%
COc1ccc(C)cc1NS(=O)(=O)c1ccc(NC(=O)CN(c2cc([N+](=O)[O-])ccc2C)S(C)(=O)=O)cc1,–,inactive: 17.4%
NNC(=S)Nc1ccc(C(F)(F)F)cc1Cl,"inconclusive: 15.8 µM [inhibitor, partial curve, poor fit]",–
COc1ccc2c(c1)CC/C(=C/c1ccco1)C2=O,"inconclusive: 1 µM [inhibitor, partial curve]",–
O=C1C2=C(Nc3ccccc3SC2c2ccc(Cl)c(Cl)c2)c2ccccc21 (stereo unspecified),"inconclusive: 5.62 µM [inhibitor, full curve]",–
Cc1cccc2c1N(CCOc1ccccc1)C(=O)C2=O,"inconclusive: 28.2 µM [inhibitor, single point]",–
COc1ccc(OC)c(-n2c(SCC(=O)NCc3ccco3)nnc2-c2c[nH]c3ccccc23)c1,"inconclusive: 39.8 µM [inhibitor, single point]",–
O=C(NCc1cccnc1)C(=O)C1C(=O)Nc2ccccc21 (stereo unspecified),–,inactive: 7.26%
COc1ccccc1NC(CC(=O)c1ccccc1)C(=O)OCC(=O)c1ccc(F)cc1 (stereo unspecified),–,inactive: -14.5%
Cc1ccc(Nc2ccc3nonc3c2[N+](=O)[O-])cc1,"inconclusive: 14.1 µM [inhibitor, partial curve]",–
COc1cc(C(=O)NCC(=O)N/N=C/c2ccc(OC(=O)c3ccco3)cc2)cc(OC)c1OC,–,inactive: -2.57%
CC(=O)N1CC=C2C(C#N)=C(N)C(C#N)(C#N)C(C)C2C1 (stereo unspecified),"inconclusive: 39.8 µM [inhibitor, single point]",–
Cc1ccc(CCNC(=O)c2cc3cc4cc(C)ccc4nc3s2)cc1,"inconclusive: 0.631 µM [inhibitor, full curve]",–
COc1cc(C2=NOC(C(=O)N3CCN(c4ccc(F)cc4)CC3)C2)cc(OC)c1OC (stereo unspecified),"inconclusive: 17.8 µM [inhibitor, partial curve]",–
CN(C)c1cccc(N=C2C=C(N3CCOCC3)CC(C)(C)C2)c1,–,inactive: -8.39%
COc1ccc(C2=NN(c3nc(C(=O)O)cs3)C(O)(C(F)(F)F)C2)c(OC)c1 (stereo unspecified),"inconclusive: 15.8 µM [inhibitor, partial curve]",–
COc1ccc(-c2cc(C(F)(F)F)n3nc(N)nc3n2)cc1,"inconclusive: 31.6 µM [inhibitor, single point]",–
Cc1cccc2cc3c(nc12)SC(=NCC1CCCO1)N(Cc1ccco1)C3 (stereo unspecified),"inconclusive: 15.8 µM [inhibitor, partial curve]",–
Cc1cc(C)c2c(=O)n(CC(=O)N3CCC(Cc4ccccc4)CC3)sc2n1,active: 12.6 µM,–
CCC1CN(C(=O)N2CCC(C(=O)NCc3cc(OC)ccc3OC)CC2)c2ccccc2O1 (stereo unspecified),"inconclusive: 15.8 µM [inhibitor, partial curve]",–
CN(C)c1ccc(/C=N/NC(=O)CCCCCNC(=O)c2ccccc2)cc1,"inconclusive: 28.2 µM [inhibitor, partial curve]",–
CCc1nn2c(-c3ccco3)ccnc2c1-c1ccccc1,"inconclusive: 1.58 µM [inhibitor, full curve]",–
COc1ccc(CCn2c(=O)[nH]c3cc(C(=O)NCCc4ccccc4)ccc3c2=O)cc1OC,"inconclusive: 22.4 µM [inhibitor, partial curve, poor fit]",–

Structure (SMILES),Potency,"activity, negative = inhibition"
Cc1cccc(N2CCN(C(=O)C3CCN(Cc4nc(-c5ccc(Cl)cc5)oc4C)CC3)CC2)c1C,–,inactive: -1.21%
COc1ccc(N2CCN(C(=O)CSc3nnnn3-c3ccc4c(c3)OCCO4)CC2)cc1,"inconclusive: 11.2 µM [inhibitor, partial curve]",–
COc1cc(OC)c(NC(=O)c2cc3c(s2)-c2ccc(Cl)cc2SC3)cc1Cl,"inconclusive: 2.51 µM [inhibitor, partial curve]",–
O=C(NC1CCCC1)C(c1ccncc1)N(C(=O)c1csnn1)C1CCCC1 (stereo unspecified),–,inactive: -4.27%
Cc1ccc(NC(=O)c2nc(S(=O)(=O)Cc3cccc(C)c3)ncc2Cl)cc1,"inconclusive: 8.91 µM [inhibitor, partial curve]",–
CCn1c(Sc2ccc([N+](=O)[O-])cn2)nnc1-c1ccco1,–,inactive: -4.67%
Cc1ccc(-c2n[nH]c(=O)c3ccccc23)cc1S(=O)(=O)NCCN1CCOCC1,–,inactive: -1.8%
COc1ccc(S(=O)(=O)NCCC(=O)NCc2ccccc2)cc1,–,inactive: 10.2%
Cc1cc(C)n(-c2ncc(-c3ccccc3)nn2)n1,"inconclusive: 20 µM [inhibitor, partial curve]",–
Cc1cccc(-n2c(N)cc(=O)[nH]c2=S)c1,–,inactive: -2.95%
Cc1cccc(-c2nc(Nc3ccc(N4CCOCC4)cc3)c3ccccc3n2)c1,"inconclusive: 25.1 µM [inhibitor, partial curve]",–
CCOC(=O)c1c(Nc2nc(C)c(C(=O)NC)s2)sc(C)c1C,"inconclusive: 1 µM [inhibitor, full curve, poor fit]",–
CCOc1ccccc1N1CC(C(=O)N2CCc3ccccc3C2)CC1=O (stereo unspecified),–,inactive: -12.6%
Cc1cc(C)n2nc(C(=O)Oc3ccc4c(c3)OCO4)nc2n1,"inconclusive: 7.08 µM [inhibitor, partial curve]",–
Cc1cccn2c(Nc3ccc4c(c3)OCCO4)c(-c3ccc(Br)o3)nc12,"inconclusive: 3.55 µM [inhibitor, partial curve]",–
CCc1ccccc1NC(=O)COc1ccc2c(c1)OCO2,"inconclusive: 39.8 µM [inhibitor, single point]",–
CNC(=O)c1ccsc1NC(=O)c1sc2ccccc2c1Cl,"inconclusive: 0.891 µM [inhibitor, full curve]",–
CCOC(=O)c1c(NC(=O)CN2CCC(C)CC2)sc(C)c1C,"inconclusive: 20 µM [inhibitor, single point]",–
CC1CCC/C(=C\Nc2ccccc2C(=O)O)C1=O (stereo unspecified),"inconclusive: 39.8 µM [inhibitor, single point]",–
CC(C)OP(=O)(OC(C)C)/C(C=O)=N\Nc1ccc([N+](=O)[O-])cc1,active: 15.8 µM,–
CCOC(=O)c1c(C)sc(-c2c(-c3cc(C)ccc3C)[nH]c3c2c(=O)[nH]c(=O)n3C)c1O,"inconclusive: 14.1 µM [inhibitor, partial curve]",–
Cc1ccc(-n2c(=O)cc(N3CCc4ccccc4C3)[nH]c2=O)cc1,–,inactive: -1.97%
CCOC(=O)c1cnn(-c2cccc(F)c2)c1C1CCNCC1,–,inactive: 0.137%
Cc1cccc(NC(=O)Cn2nc(N3CCN(c4ccccc4)CC3)ccc2=O)c1C,"inconclusive: 12.6 µM [inhibitor, partial curve, poor fit]",–

Structure (SMILES),Potency,"activity, negative = inhibition"
Cc1ccc(CC(Cc2nc3ccccc3[nH]2)c2nc3ccccc3[nH]2)cc1 (stereo unspecified),–,inactive: 3.13%
CC(=O)Nc1ccc2nc3ccccc3nc2c1,"inconclusive: 25.1 µM [inhibitor, partial curve]",–
COc1ccc(-c2cc(C(=O)OCC(=O)Nc3cc(C)on3)c3ccccc3n2)cc1OC,–,inactive: -6.34%
COCCNC(=O)C(=O)Nc1c2c(nn1-c1ccccc1)CS(=O)(=O)C2,–,inactive: 0.367%
COc1ccccc1CNc1nc(-c2ccco2)nn1S(=O)(=O)c1ccc(Cl)cc1,–,inactive: -12.7%
COC(=O)c1c(NC(=O)CSc2nnc(-c3ccco3)n2C)sc(C)c1C,"inconclusive: 3.55 µM [inhibitor, full curve]",–
Cc1ccc(S(=O)(=O)Nc2cc(Cl)c3oc4c(c3c2)C(=O)CC(C)(C)C4)cc1,–,inactive: 9.72%
COc1ccc(-c2ccc(CCC(=O)O)n2Cc2ccco2)cc1,"inconclusive: 25.1 µM [inhibitor, single point]",–
COc1ccc(/C(O)=C2\C(=O)C(=O)N(Cc3ccco3)C2c2cc(OC)ccc2OC)cc1 (stereo unspecified),"inconclusive: 31.6 µM [inhibitor, partial curve]",–
C1CCC(NC(=NC2C3CC4CC(C3)CC2C4)N2CCOCC2)CC1 (stereo unspecified),inactive,–
CN(c1ccccc1C(=O)Nc1ccc2c(c1)OCO2)S(C)(=O)=O,"inconclusive: 31.6 µM [inhibitor, single point]",–
O=S(=O)(c1ccc(Cl)cc1)N1CCNCC1,"inconclusive: 39.8 µM [inhibitor, single point]",–
O=C(Nc1ccc2oc(-c3ccncc3)nc2c1)c1ccc2c(c1)OCO2,"inconclusive: 1.58 µM [inhibitor, full curve]",–
Cc1[nH]c2ccccc2c1/C=N/NC(=O)CNC(=O)c1cccs1,"inconclusive: 35.5 µM [inhibitor, partial curve]",–
Cn1cnnc1SCC(=O)c1cccc([N+](=O)[O-])c1,"inconclusive: 25.1 µM [inhibitor, single point]",–
COc1ccc(-c2[nH]ncc2C(=O)NCc2ccc(F)cc2)cc1,"inconclusive: 39.8 µM [inhibitor, single point]",–
Cc1ccccc1NC(=O)CSc1nnc(-c2ccoc2C)n1CCc1ccccc1,–,inactive: -10.2%
Cc1ccc(-c2cc(-c3ccc(C)o3)nc(N)c2C#N)cc1,"inconclusive: 17.8 µM [inhibitor, partial curve]",–
Cc1cccc2sc(N(CCCN(C)C)C(=O)COc3ccc(Cl)cc3)nc12,–,inactive: -5.83%
COC(=O)c1cc(NC(=O)c2cccc(Cl)c2)c(=O)oc1/C=C/Nc1cc(C)cc(C)c1,"inconclusive: 3.55 µM [inhibitor, full curve]",–
CCOc1cc(C(=O)NCc2ccc3c(c2)CCN3C(=O)CC)cc(OCC)c1OCC,–,inactive: -2.29%
Cc1ccc(NC(=O)COC(=O)C(CC(C)C)N2C(=O)C3CC=CCC3C2=O)c(C)c1 (stereo unspecified),–,inactive: -11.4%
COc1ccc(OC)c(-c2cc(C(F)(F)F)c3c(n2)sc2c(O)cc(=O)[nH]c23)c1,"inconclusive: 31.6 µM [inhibitor, single point]",–

# — PubChem BioAssay AID1460 (National Center for Advancing Translational Sciences (NCATS), 2008)
